Reference: PubChem BioAssay AID1508642 (National Center for Advancing Translational Sciences (NCATS), 2021)
The whole screen tested about 43,000 compounds, of which about 200 (0.47%) were called active. About 12% were inconclusive and are not listed. Calls come from the whole dose curve; as a rule, active = well fitted cell-killing curve with a large enough effect; inconclusive = small, poorly fitted or top-dose-only effect, or effect the other way; inactive = flat fitted curve, though single readings scatter. The list shows a part of the results.

Experiment: Cell viability qHTS assay in S16 Pmp22-F2sN cells; note: nearly all actives have a fitted effect of over 65% in size
Settings: S16 Pmp22-F2sN Schwann cells (luciferase reporters placed in the Pmp22 gene) viability, CellTiter-Glo, 24 h; series mostly up to 57.5 µM; activity change, negative = cytotoxicity: at the top concentration
Text: Assay Provider: Jim Inglese Ph.D. National Center for Advancing Translational Science, National Institutes of Health, Rockville, MD CMT is a heterogeneous group of neurological disorders that affect approximately 1 in 2,500 people. In particular, the most common form of CMT, CMT1A is genetically linked to the duplication of the PMP22 gene which leads to Schwann cell overexpression, thus manifesting itself as a typical case of dose-sensitive diseases. To identify small molecule compounds that can mediate the expression of PMP22 we developed a phenotypic assay screening strategy by utilizing genome editing techniques to construct Schwann cell lines containing novel reporter technology to monitor the transcriptional or translational regulation of PMP22. For high sensitivity we use a bioluminescent reporter system embedded in the 3' UTR of the PMP22 gene (S16(c9) Pmp22-F2sN) to identify compounds that inhibit gene expression. […] We can further discriminate the effect of all transcriptionally active molecules on PMP22 translation or stability with an assay that incorporates a short NLuc peptide (HiBiT) at the C-terminus of expressed PMP22 (S16(f8) PMP22-HiBiT) allowing alpha complementation and luminescence detection of membrane-associated PMP22 protein. These assays were screened against the NCATS Sytravon Library Collection. Miniaturization of these assays to 1536-well plate format for quantitative high throughput screening (qHTS) yielded rich data sets immediately from the qHTS assay (S16(c9) Pmp22-F2sN), when compared with data from a cell viability assay (Cell TiterGlo) to identify compounds that decreased the output signals through cellular toxicity to streamline the selection process of actives for subsequent characterization using the HiBiT assay (S16(f8) PMP22-HiBiT).
Cell viability assay in S16 Pmp22-F2sN cells PROTOCOL TABLE (format as described by Inglese J, Shamu CE and Guy RK. 2007) SEQUENCE No. (e.g., 1, 2, 3, etc.); […] (e.g., Cells, Incubation, Reagent, etc.); VALUE and DESCRIPTION. 1. Cells. Add 500-1,000 cells in 4 uL in growth media (DMEM High Glucose, No Phenol Red media + 10% heat-inactivated FBS + 1% Pen/Strep supplemented media) per well into Greiner 1536-well white/solid bottom high base, TC-treated plates. 2. Compounds. Library compounds and controls added at 23nL per well, transferred by Pin Tool. 3. Incubation. Incubate plates at 37C, 5% CO2, 95% RH for 24 h. 4. Reagent. Add 3uL CellTiter-Glo per well of Greiner 1536-well plates. 5. Incubation. Incubate plates at room temperature for 15 min., protect from light. 6. Detector. FLuc luminescence measured using CCD-based camera (Viewlux). NOTES (numbers refer to Sequence numbers above; values are from representative experiments) 6. Luminescence Read: Clear filter; Exposure = 1 sec, Gain = High, Speed = Slow, Binning = 2X REFERENCES: 1. Inglese J, Shamu CE and Guy RK, Reporting data from high throughput screening of small molecule libraries, Nature Chemical Biology, 2007, 3(8): 438-441. doi.org/10.1038/nchembio0807-438 2. Yasgar A, Shinn P, Jadhav A, Auld DS, Michael S, Zheng W, Austin CP, Inglese J and Simeonov A, Compound Management for Quantitative High-Throughput Screening. J. Assoc. Lab. Auto., 2008, 13: 79-89. doi: 10.1016/j.jala.2007.12.004
% is set by controls: 0 for no effect and ±100 for the full control effect; potency is the fitted concentration of half-maximal effect.

Row | SMILES | activity change, negative = cytotoxicity | Potency
1 | Cn1c(NCCCO)nc2c1c(=O)n(Cc1cccc(F)c1)c(=O)n2C | inactive: 2.71% | 
2 | Cc1ccc(CC(=O)NCc2nc(-c3ccccc3)no2)cc1 | inactive: 13.9% | 
3 | O=C(NCCc1ccccc1Cl)c1cc2ccccn2n1 | inactive: -1.53% | 
4 | COC(=O)c1c(NC(=O)c2cc(=O)c3cc(C)cc(C)c3o2)sc2c1CCC2 | inactive: 4.55% | 
5 | CCOC(=O)c1ccc(NC(=O)c2nc(SCc3ccc(F)cc3)ncc2Cl)cc1 | inactive: 9.9% | 
6 | Cc1cc(SCC(=O)Nc2ccc(F)cc2F)nc(=O)[nH]1 | inactive: -0.405% | 
7 | CCCCn1c(=O)c2oc3ccccc3c2n(Cc2ccc(C)cc2)c1=O | inactive: -6.84% | 
8 | CCOc1ccc2c(c1)NC(c1ccc(OCC)c(OCC)c1)=NC(c1ccc(F)cc1)=N2 | inactive: 2.94% | 
9 | CCc1ccc(N(CC)C(=O)c2cn(C)c(=O)c3cc(OC)c(OC)cc23)cc1 | inactive: 28.3% | 
10 | Cc1ccc(S(=O)(=O)NCCc2nnc3ccc(SCC(=O)Nc4c(C)cc(C)cc4C)nn23)cc1 | inactive: 2.07% | 
11 | CCn1c(CNC(=O)c2ccc(OC)cc2)nnc1SCC(=O)Nc1cccc(C)c1 | inactive: -0.916% | 
12 | CC(C)(C)C1CCc2c(sc3nc(-c4cc5cc(Cl)ccc5oc4=O)[nH]c(=O)c23)C1 (centres undefined) | inactive: 10.9% | 
13 | Cc1ccc(NC(=O)Cn2nc(C(F)(F)F)c3c2CCCC3)cc1 | inactive: 3.74% | 
14 | COc1ccc(NC(=O)CN2C(=O)COc3ccc(S(=O)(=O)NC4CCCC4)cc32)cc1OC | inactive: 11.7% | 
15 | Cc1cc2c(cc1S(=O)(=O)NCc1ccc(F)cc1)OCC(=O)N2 | inactive: 7.38% | 
16 | Cc1ccc(-n2ncc3c(NC4CCCCC4)ncnc32)cc1C | inactive: 11.3% | 
17 | O=C(c1ccccc1)n1nc(-c2ccc(Cl)cc2)nc1NCc1ccco1 | inactive: -16.8% | 
18 | CSc1ccc(CCNC(=O)Cn2ncc3c([nH]c4ccccc43)c2=O)cc1 | inactive: -1.15% | 
19 | CCCN(C(=O)c1ccc2c(=O)n3c(nc2c1)CCCCC3)c1cccc(Cl)c1 | inactive: -11.2% | 
20 | Cc1cc(C)cc(NCc2nnc3n2CCCCC3)c1 | inactive: -1.07% | 
21 | Cc1ccc2occ(CC(=O)Nc3c(C)cccc3C)c2c1 | inactive: 3.78% | 
22 | CC(=O)N1CCc2cc(Br)cc(S(=O)(=O)CCC(=O)NCc3ccc(F)cc3)c21 | inactive: 0.233% | 

Row | SMILES | activity change, negative = cytotoxicity | Potency
23 | O=C(CCNS(=O)(=O)c1ccc2c(c1)CCN2C(=O)C1CC1)Nc1ccc(Cl)cc1 | inactive: -28.3% | 
24 | COc1ccc(OCC(=O)N2CCN(C(=O)c3ccc(OC)c(OC)c3)CC2)cc1 | inactive: 9.62% | 
25 | Cc1cccc(C)c1NC(=O)CCSCCc1ccccn1 | inactive: -7.23% | 
26 | COc1cn(CC(=O)Nc2ccc(C)cc2)c(CN2CCCCC2)cc1=O | inactive: -2.18% | 
27 | CC(=O)c1ccc(NC(=O)c2sc(-n3nc(C)c(Cc4ccc5c(c4)OCO5)c3C)nc2C)cc1 | inactive: 2.06% | 
28 | O=c1oc2c(CN3CCOCC3)c(O)ccc2cc1-c1ccccc1 | inactive: 3.72% | 
29 | COc1ccc(N2CCN(C(=O)c3noc4c3CCCCC4)CC2)cc1 | inactive: -4.9% | 
30 | CCC1CN(C(=O)N2CCC(C(=O)NCc3cccs3)CC2)c2ccccc2O1 (centres undefined) | inactive: -6.53% | 
31 | Cc1ccc(N2C(=O)CSC23C(=O)N(CC(=O)NCCc2ccccc2)c2ccccc23)cc1 (centres undefined) | inactive: -3.67% | 
32 | Cc1ccc(NC(=O)c2ccc(-c3ccccc3)s2)cc1 | inactive: 3.22% | 
33 | Cc1ccc(C(=O)OCc2cc(=O)n3nc(CC(C)C)sc3n2)cc1 | inactive: -5.07% | 
34 | COc1ccc(CCNC(=O)c2cnc3sc(N4CCCCCC4)nn3c2=O)cc1 | inactive: 9.87% | 
35 | O=C(NCCc1nc2ccccc2n1Cc1ccc(Cl)cc1)c1ccccc1 | inactive: 7.72% | 
36 | CCOC(=O)c1ccccc1NC(=O)c1sc2nc(-c3ccc(F)cc3)cn2c1C | inactive: -1.58% | 
37 | Cc1nnc(NC(=O)CSc2nc3c([nH]c4ccccc43)c(=O)n2-c2cccc(Cl)c2)s1 | inactive: 0.765% | 
38 | COc1ccc(-c2nc3ccccc3o2)cc1NC(=O)c1cc(Br)ccc1OC | inactive: 1.39% | 
39 | Cc1cccc(N2CCN(C(=O)Cc3c(C(=O)O)c(C)cn3C)CC2C)c1 (centres undefined) | inactive: 4.04% | 
40 | CN(Cc1ccccc1)C(=O)c1ccc(CSc2nc3cccnc3n2Cc2ccccc2)cc1 | inactive: -1.54% | 
41 | CCCS(=O)(=O)Nc1cccc(-c2cn3ccsc3n2)c1 | inactive: -10% | 
42 | Cc1cccc(CSc2nc3ccncc3n2CC(=O)N(C)C2CCCCC2)c1 | inactive: -0.849% | 
43 | COc1ccc(CCNC(=O)c2ccc3nc(CCc4ccccc4)oc3c2)cc1OC | inactive: 16.5% | 
44 | COc1ccc(NC(=O)Cn2c(=O)oc3cc(S(=O)(=O)N4CCCC4)ccc32)cc1OC | inactive: 6.91% | 

Row | SMILES | activity change, negative = cytotoxicity | Potency
45 | COc1ccc(OC)c(NC(=O)c2nnn(CC(=O)Nc3ccc(C(C)C)cc3)c2N)c1 | inactive: 3.4% | 
46 | COc1ccc(NC(=O)Cn2cnc3c(nc4n3CCCCC4)c2=O)cc1Cl | inactive: -2.85% | 
47 | COc1ccc(C2CC(=O)Nc3c2c(C)nn3-c2nc(C)cc(C)n2)c(OC)c1OC (centres undefined) | inactive: -0.398% | 
48 | CCc1cccc(NC(=O)CCn2nc(C)cc2C)c1 | inactive: 9.82% | 
49 | CCC(=O)NCCc1sc2nc(-c3ccc(OC)cc3)nn2c1C | inactive: 6.04% | 
50 | Cc1ccc(NC(=O)C2CCCN(S(=O)(=O)c3cccc4nsnc34)C2)c(C)c1 (centres undefined) | inactive: -5.6% | 
51 | CCOc1ccc(C(=O)NCCc2csc(-c3cccnc3)n2)cc1 | inactive: 1.89% | 
52 | Cc1ccc(Cl)cc1Nc1nn2c(=O)c3ccc(C(=O)NC4CCC(C)CC4)cc3nc2s1 (centres undefined) | inactive: 2.09% | 
53 | O=C(Cn1c(=O)n(-c2ccc(F)c(Cl)c2)c(=O)c2sc3ccccc3c21)NC1CCCCC1 | inactive: -1.07% | 
54 | CCOC(=O)c1c(-c2ccccc2)oc2cc(Br)c(OCc3ccccc3)cc12 | inactive: 14.4% | 
55 | CCn1c(=N)c(C(=O)NC2CCCC2)cc2c(=O)n3cc(C)ccc3nc21 | inactive: 5.31% | 
56 | Cc1ccc(OCCCCn2nnc3sc4c(c3c2=O)CCC(C)C4)cc1 (centres undefined) | inactive: 3.58% | 
57 | CCC(C)S(=O)(=O)c1oc(-c2ccc(F)cc2)nc1S(=O)(=O)c1ccc(F)cc1 (centres undefined) |  | active: 6.31 µM
58 | CCc1ccc(NC(=O)Cn2c(=O)n(CCC(=O)NCCc3ccc(OC)c(OC)c3)c(=O)c3ccccc32)cc1 | inactive: 6.78% | 
59 | CCNC(=O)C1CCCN(c2nn3cc(-c4ccc(C)cc4)nc3s2)C1 (centres undefined) | inactive: -19.9% | 
60 | Cc1ccc(N2CC(NC(=O)C3CCCC3)CC2=O)cc1C (centres undefined) | inactive: 3.78% | 
61 | CC(=O)c1ccc(S(=O)(=O)N2CCn3cccc3C2c2ccc(F)c(F)c2)cc1 (centres undefined) | inactive: -18.8% | 
62 | CCc1cc(C(=O)NCc2ccc(F)cc2)no1 | inactive: 4.71% | 
63 | COc1ccc(CNc2ncnc3c2c(-c2ccccc2)cn3-c2cccc(C)c2)cc1 | inactive: 0.255% | 
64 | Cc1ccc(NC(=O)CSc2nc(C3CCCC3)nc3c2c(=O)n(C)c(=O)n3C)c(C)c1 | inactive: 3.13% | 
